Laboratory results published in PubChem BioAssay AID1671193 (National Center for Advancing Translational Sciences (NCATS), 2021).
In all, about 150,000 compounds went through this assay and about 180 (0.12%) were called active. The inconclusive results got no clear call from the source; some entries with a clear call stand among them for comparison. Calls come from the whole dose curve; as a rule, active = well fitted cell-killing curve with a large enough effect; inconclusive = small, poorly fitted or top-dose-only effect, or effect the other way; inactive = flat fitted curve, though single readings scatter. Where the call is inconclusive, the potency comes from a doubtful curve fit.
Potency is the fitted concentration of half-maximal effect; tags give direction and shape of the fitted curve.

Assay: GF-AFC viability counterscreen for inhibitors of alpha-synuclein gene (SNCA) expression; note: nearly all actives have a fitted effect of over 30% in size;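 for activity change, negative = cytotoxicity: 0% = DMSO-treated cells and -100% = medium-only wells without cells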
Settings: HEK-293-SNCA-luc viability, GF-AFC fluorescence, 24 h; activity change, negative = cytotoxicity: at 57.1 µM (top of the series) unless noted
Procedure, shortened: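 Cytotoxicity counterscreen: after 24 h compound treatment of genome-edited SNCA-luciferase HEK-293 cells, live-cell protease substrate GF-AFC read by fluorescence after 30 min; activity scaled between DMSO (0%) and medium-only (-100%), curves Hill-fitted.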
For `Cc1noc(C)c1-c1cc2c(cc(C)n2C)c(-c2cnn(C)c2)n1`, the “activity change, negative = cytotoxicity” value was inactive: 0.904% [at 87.6 µM]. In the case of `CC1=C[C@@H](CN)[C@H](C(C)C)C[C@H]1Cc1nc2ccc(F)cc2[nH]1`, the Potency is reported as inconclusive: 56.2 µM [cytotoxic, single point]. In the case of `CC1=C[C@@H](CN(CC2CC2)CC2CC2)[C@H](C(C)C)C[C@H]1Cc1nc2c(C)cccc2[nH]1`, the Potency is reported as inconclusive: 28.2 µM [cytotoxic, partial curve, poor fit]. For `Cc1cc(OCC(=O)O)c(C)c2c1CC[C@@H]([C@H](C)C(=O)NCc1ccccc1)C2`, the “activity change, negative = cytotoxicity” value was inactive: 0.101% [at 87.6 µM]. With `COc1ccc(C2C=C(c3ccc(Br)cc3)Nc3nnnn32)c(OC)c1` (stereo not drawn) the Potency was inconclusive: 28.2 µM [rising, partial curve, poor fit]. For `CCCCn1c(=O)c(C(=O)NCc2ccc(C(F)(F)F)cc2)nc2cccnc21`, the “activity change, negative = cytotoxicity” value was inactive: 0.706%. In the case of `Nc1c(C(=O)NCc2ccc(Cl)cc2)sc2nc(-c3ccc(F)cc3)ccc12`, the Potency is reported as inconclusive: 1.58 µM [rising, full curve, poor fit]. In the case of `COc1ccc2c(CNCCc3cccs3)c(C(=O)O)n(Cc3cccc(F)c3)c2c1`, the Potency is reported as inconclusive: 20 µM [cytotoxic, single point]. For `NCC(=O)N1CCc2nc(-c3ccco3)nc(N3CC=CCC3)c2CC1`, the “activity change, negative = cytotoxicity” value was inactive: 7.71%. In the case of `O=C(NCc1ccc(C(F)(F)F)cc1)c1nc2cccnc2n(Cc2ccccc2)c1=O`, the “activity change, negative = cytotoxicity” value is reported as inactive: 0.463%. For `Cc1nn2c(c1-c1ccccc1Oc1ccccc1)N(C(=O)c1ccccc1)CCC2`, the Potency was inconclusive: 39.8 µM [cytotoxic, single point]. In the case of `Cc1nn(-c2ccc(C(C)C)cc2)c(C)c1[C@@H]1C=C[C@@H](NC(=S)NCC(C)C)C1`, the Potency is reported as inconclusive: 39.8 µM [cytotoxic, partial curve, poor fit]. In the case of `c1cc(NCCc2c[nH]c3ccccc23)cc(Nc2ccncc2)c1`, the Potency is reported as inconclusive: 18.9 µM [cytotoxic, partial curve, poor fit]. For `Cc1nc2n(c1C(=O)Nc1cc(-c3ccc(F)cc3)[nH]n1)CCC(Nc1ccc(F)cc1)C2` (stereo not drawn), the “activity change, negative = cytotoxicity” value was inactive: -29.7%. With `Cc1ccc(-c2cc3c(=O)n(CCNC(=O)Cc4cccc(F)c4)ccn3n2)cc1C` the “activity change, negative = cytotoxicity” value was inactive: -5.47%. For `CC1=C[C@@H](CNCc2ccccc2O)[C@H](C(C)C)C[C@H]1Cc1nc2c(C)cccc2[nH]1`, the Potency was inconclusive: 56.2 µM [cytotoxic, single point]. In the case of `CC1=C[C@@H](CNCc2ccccc2F)[C@H](C(C)C)C[C@H]1Cc1nc2c(C)cccc2[nH]1`, the Potency is reported as inconclusive: 35.5 µM [cytotoxic, single point]. With `COc1ccc(C(=O)NCCn2ccn3nc(-c4ccc(F)cc4)cc3c2=O)cc1OC` the Potency was inconclusive: 15.8 µM [cytotoxic, partial curve, poor fit].
